# Source: PubChem BioAssay AID504832 (National Center for Advancing Translational Sciences (NCATS), 2011)
# The whole screen tested about 310,000 compounds, of which about 18,000 (5.8%) were called active. Inconclusive results, whose numbers are uncertain, are shown with a selection of clear calls. Calls come from the whole dose curve; as a rule, active = well fitted inhibition curve with a large enough effect; inconclusive = small, poorly fitted or top-dose-only effect, or another doubt; inactive = no such curve, though single readings can be large or run the other way. Potencies of inconclusive entries are left out as doubtful fits.
# Assay: Primary qHTS for delayed death inhibitors of the malarial parasite plastid, 48 hour incubation
# Conditions: P. falciparum luciferase growth in erythrocytes; series mostly up to 28.7 µM
# Excerpt: The goal of this screen is to discover new antimalarial compounds that act by inhibiting the development of the apicoplast in the malarial parasite Plasmodium falciparum. The biochemical processes that make this organelle essential for erythrocytic stage parasites are not well understood. However, antibiotics such as azithromycin and tetracycline, which target the apicoplast translational machinery, have a potent antimalarial effect.
# We have developed a cell-based assay that measures parasite growth based on the expression of an integrated copy of a firefly luciferase reporter. To detect small molecules that cause this "delayed death" phenotype, erythrocytes infected with the luciferase-expressing parasites were incubated with compounds for either one or two generations, corresponding to 48 and 96 hours, respectively. Compounds that inhibit parasite growth in the second generation, but not the first, should be enriched in antimalarials that target the apicoplast. Growth inhibition is detected by a decrease in luciferase activity.
# Assay Provider: David Fidock and Eric Ekland, Columbia University
# Keywords: NIH Roadmap, MLPCN, MLI, MLSMR, qHTS, NCGC, qHTS, malaria, luciferase, viability
# Four microliters of culture medium (RPMI 1640 with 0.5% w/v Albumax (GIBCO), 24 mM sodium bicarbonate and 10 ug/mL gentamycin) were dispensed by a Multi-drop Combi into white solid 1536-well plates (Grenier) and 23 nL compound was added by a pin tool. Four microliters of infected erythrocytes (2% hematocrit, 0.1% parasitemia final concentration) in culture medium were dispensed and the plates incubated for 48 hours at 37 C in 5% CO2. Two microliters of luciferase detection reagent was added and luminescence was detected by a ViewLux (PerkinElmer) reader.
# Potency is the fitted concentration of half-maximal effect; tags give direction and shape of the fitted curve.
row,Structure (SMILES),Potency
1,Cn1cc(CNCc2ccccc2OCC(O)CN2CCc3ccccc3C2)cn1 (stereo not given),"inconclusive [inhibitor, partial curve]"
2,Cc1ccccc1CSc1nnc(NC(=O)C2COc3ccccc3O2)s1 (stereo not given),"inconclusive [inhibitor, partial curve, poor fit]"
3,CCN(CC)CCC(c1cc(OC)c(OC)c(OC)c1)c1c(OC)cc(OC)c2c(-c3ccccc3)cc(=O)oc12 (stereo not given),active: 3.29 µM
4,COCC(=O)N1CCC(Oc2ccc(C(=O)NCCc3ccncc3)cc2)CC1,inactive
5,Cc1cc(NC(=O)C(C)SCC(=O)Nc2cc(Cl)ccc2N2CCN(C)CC2)no1 (stereo not given),"inconclusive [inhibitor, single point]"
6,Cc1cc(C)n(CC(=O)N2c3ccccc3Sc3ccc(C(F)(F)F)cc32)n1,active: 10.4 µM
7,CS(=O)(=O)c1ccc(Cl)c(NC(=O)COC(=O)c2cccc(S(=O)(=O)N3CCCCC3)c2)c1,inactive
8,Cc1cc(C(F)F)n2nc(C(=O)Nc3ccc(S(=O)(=O)NC45CC6CC(CC(C6)C4)C5)cc3)nc2n1,"inconclusive [inhibitor, partial curve, poor fit]"
9,COc1ccc(C)cc1NC(=O)CN1C(=O)COc2ccc(S(=O)(=O)N3CCOCC3)cc21,inactive
10,CC1(C)Cc2c(cnn2-c2ccccc2)C(NC(=O)CCCn2cncn2)C1 (stereo not given),inactive
11,COc1ccc(CCNCC(C)c2ccccc2)cc1 (stereo not given),inactive
12,OCCN1CCN(c2nc(NCc3ccco3)c3ccccc3n2)CC1,"inconclusive [inhibitor, partial curve, poor fit]"
13,Cn1nnc(NC(=S)NC(=O)c2cccc3c(Cl)cccc23)n1,"inconclusive [inhibitor, single point]"
14,O=C1NCCN1C(=O)C12CC3CC(CC(C3)C1)C2,"inconclusive [inhibitor, partial curve]"
15,CCCCn1c(NC(=O)c2ccccc2Cl)c(C#N)c2nc3ccccc3nc21,"inconclusive [inhibitor, partial curve, poor fit]"
16,O=C(Nc1ccnn1C1CCN(Cc2ccc(O)c(Cl)c2)CC1)C1CCCC1,active: 2.08 µM
17,O=C(CSc1nccn1-c1ccc(F)cc1)NCc1ccc(F)cc1,"inconclusive [inhibitor, partial curve, poor fit]"
18,O=C(NCc1cccnc1)c1cc([N+](=O)[O-])ccc1N1CCOCC1,"inconclusive [inhibitor, partial curve, poor fit]"
19,COCC(C)NC(=O)CSc1nc2cc(S(=O)(=O)N3CCCCC3)ccc2o1 (stereo not given),"inconclusive [inhibitor, single point]"
20,CC1CC(C(F)(F)F)n2nc(C(=O)O)cc2N1 (stereo not given),inactive
21,Cc1ccc2c(c1)C1CN(C)CCC1N2C(=S)NC(=O)c1ccc(Cl)cc1Cl (stereo not given),"inconclusive [inhibitor, partial curve]"
22,NC(=O)CC(NC(=O)Cc1cccc2ccccc12)c1ccc(NCCc2cccc(F)c2)c([N+](=O)[O-])c1 (stereo not given),"inconclusive [inhibitor, partial curve, poor fit]"
23,C(#Cc1ccccc1)C[N+]1(CC#Cc2ccccc2)CCCC1,active: 2.33 µM
24,COc1cc(-c2nc3ccccn3c2N)ccc1O,inactive

row,Structure (SMILES),Potency
1,CCN(c1cccc(C)c1)S(=O)(=O)c1ccc(-c2cc(C)no2)s1,"inconclusive [inhibitor, single point]"
2,COC(=O)C(=Cc1ccc(OCc2ccc([N+](=O)[O-])cc2)c(OC)c1)C(=O)OC,"inconclusive [inhibitor, single point]"
3,Cc1nn2c(=O)cc(COC(=O)c3ccc(NC(=O)C(C)(C)C)cc3)nc2s1,"inconclusive [inhibitor, partial curve, poor fit]"
4,O=c1cc(CSc2ccccc2)[nH]c2ccccc12,active: 10.4 µM
5,CCS(=O)(=O)N1CCC(c2nc(-c3ccc(C)cc3)no2)CC1,inactive
6,CC(NC(=S)N1CCN(c2ccccc2)CC1)c1ccccc1 (stereo not given),"inconclusive [inhibitor, single point]"
7,O=C(CN1CCOCC1)Nc1ccc2c(c1)CCC2,inactive
8,Cc1cccc(NS(=O)(=O)c2cnc(Cl)c(Br)c2)n1,inactive
9,O=C(COC(=O)/C=C/c1ccc(F)cc1)Nc1nnc(-c2ccccc2)o1,inactive
10,CCN(CC)S(=O)(=O)c1ccc(NC(=O)c2cc(C(=O)OC)cc([N+](=O)[O-])c2)cc1,"inconclusive [inhibitor, single point]"
11,Cc1ccc(-n2nnnc2SCC(=O)N(CC(C)C)c2c(N)n(CC(C)C)c(=O)[nH]c2=O)cc1,"inconclusive [inhibitor, partial curve]"
12,Cc1ccc(S(=O)(=O)N2N=C3CCCCC3C2(O)C(F)(F)F)cc1 (stereo not given),"inconclusive [inhibitor, partial curve, poor fit]"
13,Cc1c(Cl)cccc1NC(=S)N1CCC(C(N)=O)(N2CCCCC2)CC1,inactive
14,CC1Cc2ccccc2N1C(=O)CN(C)CC(=O)Nc1cccc(F)c1 (stereo not given),"inconclusive [inhibitor, single point]"
15,Cc1csc(NC(=O)CSc2nnc(Cc3cccn3C)n2-c2ccc(F)cc2)n1,"inconclusive [inhibitor, partial curve, poor fit]"
16,COc1ccc(OC)c(NC(=O)NNC(=O)COc2ccc([N+](=O)[O-])cc2)c1,inactive
17,COc1cc(CN2CCc3ccc(NC(=O)CCc4ccccc4OC)cc3C2)ccc1O,active: 5.22 µM
18,Cn1c2ccccc2c(=O)c2c(=O)n(-c3ccc(F)cc3)c(-c3cccs3)nc21,"inconclusive [inhibitor, full curve, poor fit]"
19,Cn1c(=O)c2c(nc(N/N=C/c3cccnc3)n2Cc2ccccc2)n(C)c1=O,"inconclusive [inhibitor, partial curve, poor fit]"
20,Cc1ccn2c(=O)nc(SCC(=O)Nc3cc(C)on3)nc2c1,inactive
21,CC(=O)c1sc(NC(=O)C(C)(C)C)nc1C,inactive
22,COc1ccc(Cl)cc1Nc1nc(N)c2ccccc2n1,active: 9.28 µM
23,Cc1nc2ncnn2c(C)c1CCC(=O)NCCCN1CCN(c2cccc(Cl)c2)CC1,"inconclusive [inhibitor, partial curve]"
24,Cc1ncc(CO)c2c1Oc1nc(-c3ccccc3)nc(SCC(=O)N3CCCCC3)c1C2,"inconclusive [inhibitor, partial curve]"

row,Structure (SMILES),Potency
1,COc1ccc(NC(=O)c2ccccc2NC(=O)c2ccccc2C(=O)O)c(OC)c1,"inconclusive [inhibitor, full curve]"
2,O=C(CCC(=O)Nc1ccc(F)cc1)N/N=C/c1cc([N+](=O)[O-])ccc1O,"inconclusive [inhibitor, single point]"
3,O=C(Nc1ccccc1C(=O)N1CCCCCC1)c1cccc(S(=O)(=O)N2CCOCC2)c1,active: 11.7 µM
4,CCOC(=O)C1CCCN(C(=O)c2ccc(S(=O)(=O)N3CCCC3)cc2)C1 (stereo not given),inactive
5,C[n+]1cn(Cc2cc(Cl)ccc2OC(F)F)c2ccccc21,"inconclusive [inhibitor, single point]"
6,O=C(CCNC(=O)C1CCN(S(=O)(=O)c2ccc(F)cc2)CC1)NCc1cccc(Cl)c1,inactive
7,O=C(COC(=O)C1CCN(c2ccc(C(F)(F)F)cn2)CC1)Nc1ccc(Cl)cn1,"inconclusive [inhibitor, single point]"
8,O=C(Nc1ccc(Cl)cc1)Nc1nnc(CSCc2ccccc2Cl)s1,"inconclusive [inhibitor, single point]"
9,O=C1C(Cc2ccccc2)Nc2ncnc(N3CCc4ccccc4C3)c2N1Cc1ccc(Br)cc1 (stereo not given),active: 10.4 µM
10,C/C=C/c1ccc(OCC(=O)OCC)c(OC)c1,"inconclusive [inhibitor, single point]"
11,CC(=O)c1ccc(C(=O)N2CCCC(Nc3ccc(C(C)C)cc3)C2)s1 (stereo not given),"inconclusive [inhibitor, single point]"
12,CCCc1nnc(SCc2ccc(C(=O)OC)o2)n1N,inactive
13,COC(C(=O)Nc1ccnn1C1CCN(Cc2cnn(C(C)C)c2)CC1)c1ccccc1 (stereo not given),"inconclusive [inhibitor, single point]"
14,CCOC(=O)C1CCN(c2ncnc3c2nnn3Cc2ccccc2Cl)CC1,inactive
15,Cc1c(C(=O)N(C)CCOc2ccccc2)oc2c(Cl)cccc12,"inconclusive [inhibitor, single point]"
16,Cc1cc(C)n(CC(O)COc2ccc3ccccc3c2)n1 (stereo not given),inactive
17,Cc1ccc(-n2nnnc2SCC(=O)NNC(=O)c2ccc([N+](=O)[O-])cc2)cc1,"inconclusive [inhibitor, partial curve, poor fit]"
18,Cc1cccc(-n2c(C)nc3c(cnn3-c3ccc(F)cc3)c2=O)c1,"inconclusive [inhibitor, full curve, poor fit]"
19,COc1ccccc1CN(Cc1nc2ccccc2c(=O)[nH]1)C(=O)Nc1ccccc1,"inconclusive [inhibitor, single point]"
20,COC(=O)[C@H](C)NC(=O)Nc1ccc(OC(F)(F)F)cc1,"inconclusive [inhibitor, full curve, poor fit]"
21,CC(=O)c1cccc(NC(=O)CCn2c(=O)oc3ccccc32)c1,inactive
22,COCc1nc(-c2ccc(-c3ccc(C)cc3)nc2OC)no1,inactive
